# Measured values as given in paper PMC4336329 (PLoS ONE, 2015).
# Screen size: about 310,000 compounds; about 2,200 (0.71%) showed an effect of 50% or more. Effects have a minus sign here. The list shows a part of the results.
# Target: human ether-à-go-go-related gene (hERG) potassium channel (human, UniProt Q12809)
# Assay: primary screen, population patch clamp on CHO cells stably expressing hERG
# Chain of human ether-à-go-go-related gene (hERG) potassium channel (Q12809 whole entry, looked up): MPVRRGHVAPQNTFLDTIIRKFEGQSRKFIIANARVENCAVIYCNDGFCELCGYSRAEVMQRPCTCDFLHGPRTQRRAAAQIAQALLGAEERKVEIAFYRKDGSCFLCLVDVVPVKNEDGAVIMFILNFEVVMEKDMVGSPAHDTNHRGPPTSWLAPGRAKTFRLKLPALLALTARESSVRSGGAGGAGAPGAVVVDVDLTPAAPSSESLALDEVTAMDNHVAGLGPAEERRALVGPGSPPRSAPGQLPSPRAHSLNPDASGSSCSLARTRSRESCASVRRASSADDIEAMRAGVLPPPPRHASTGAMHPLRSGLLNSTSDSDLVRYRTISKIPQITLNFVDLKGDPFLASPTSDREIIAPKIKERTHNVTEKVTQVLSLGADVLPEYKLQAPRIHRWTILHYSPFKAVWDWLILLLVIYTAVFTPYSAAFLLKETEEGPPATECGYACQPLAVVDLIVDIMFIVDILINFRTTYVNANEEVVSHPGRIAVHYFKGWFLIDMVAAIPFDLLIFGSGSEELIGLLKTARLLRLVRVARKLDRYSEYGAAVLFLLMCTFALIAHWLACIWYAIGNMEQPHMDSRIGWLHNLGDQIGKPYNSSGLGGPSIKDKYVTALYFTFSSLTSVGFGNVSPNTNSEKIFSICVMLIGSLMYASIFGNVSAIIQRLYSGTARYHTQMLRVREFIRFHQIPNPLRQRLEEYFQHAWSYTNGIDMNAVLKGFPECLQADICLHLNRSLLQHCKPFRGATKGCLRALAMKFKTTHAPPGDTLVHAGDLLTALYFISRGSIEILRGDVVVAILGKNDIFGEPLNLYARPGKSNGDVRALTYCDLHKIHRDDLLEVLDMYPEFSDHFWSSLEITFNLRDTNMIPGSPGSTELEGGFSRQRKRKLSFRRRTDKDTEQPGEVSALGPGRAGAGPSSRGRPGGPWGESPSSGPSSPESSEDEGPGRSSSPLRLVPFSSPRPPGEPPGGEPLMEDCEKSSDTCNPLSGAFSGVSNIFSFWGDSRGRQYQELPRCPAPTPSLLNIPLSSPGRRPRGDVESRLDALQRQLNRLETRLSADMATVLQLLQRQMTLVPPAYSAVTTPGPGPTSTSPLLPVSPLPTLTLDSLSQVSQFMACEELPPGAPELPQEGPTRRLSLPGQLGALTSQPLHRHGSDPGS
row,Compound,"hERG current change (%, negative = inhibition) at 1uM [%]"
1,CC(C(=O)N1CCCCC1)N1C(=O)c2ccccc2C1=O (centres unmarked),6.9
2,COc1ccc(-c2cc3ccccc3[nH]2)cc1,9.14
3,Cc1cccc(C(=O)N2CC(=O)Nc3ccc(F)cc3C2c2ccc(F)cc2)c1 (centres unmarked),5.39
4,CC(C)Cc1nnc(NC(=O)CCC(=O)N2CCCCC2)s1,15.1
5,O=[N+]([O-])c1c(NCCCO)cc(N2CCCCCC2)c2nonc12,13.5
6,CN(CC(=O)Nc1ccccc1Br)C(=O)c1ccccc1-c1nc2ccccc2s1,1.31
7,CCOC(=O)C1=C(c2ccccc2)OC(N)=C(C#N)C1c1ccco1 (centres unmarked),14.6
8,CC(=O)Nc1nc(N)n(-c2ccccc2)n1,4.98
9,CCOC(=O)c1c(C)n(C(=O)c2ccco2)c(=O)n1C(=O)c1ccco1,3.11
10,O=C(Cc1ccccc1)Nc1ccc(NC(=O)c2ccc(Br)cc2)cc1,17.1
11,COc1ccc(C(=O)CSc2nnc(-c3cnccn3)n2Cc2ccco2)cc1,-0.832
12,O=C(CCC(=O)NC1CCCCC1)Nc1cccnc1,13.7
13,O=C(NCCCN1CCCC1=O)c1cc2ccccc2o1,8.38
14,Cc1cccc(NC(=O)c2sccc2-n2cccc2)c1C,13
15,Cc1ccc(S(=O)(=O)NCCn2nc(C)nc2C)cc1,16.5
16,CCCC(C)(C)NC(=O)CCCCC(=O)NC(C)(C)CCC,5.58
17,O=C(Cc1csc(-c2ccc(Cl)cc2)n1)Nc1cccc(S(=O)(=O)NC2=NCCC2)c1,14.8
18,C[C@]12CCC(=O)C=C1CC[C@@H]1C2CC[C@]2(C)C(=O)CCC12 (some centres unmarked),9.07
19,Fc1cccc(CCN2C(=S)NC[C@@H]2Cc2ccccc2)c1,-11.6
20,CC(OC(=O)c1ccccn1)C(=O)Nc1ccc2c(c1)OCCO2 (centres unmarked),6.36
21,O=C(c1cnc2ccccc2n1)N1CCN(c2ccc(C(F)(F)F)cn2)CC1,2.54
22,Cc1[nH]c(=O)[nH]c(=O)c1/C=N/NC(=O)[C@@H](N)CC(C)C.Cl,-1.91

row,Compound,"hERG current change (%, negative = inhibition) at 1uM [%]"
1,O=C(c1ccc(-c2ccccc2Cl)o1)N1CCN(c2ccccc2O)CC1,5.91
2,Cl.O=C(CCS(=O)(=O)c1ccccc1)N(CCCN1CCOCC1)c1nc2c(F)cccc2s1,7.36
3,C=CCNC(=S)NS(=O)(=O)c1cccs1,9.12
4,NC(N)=NC(N)=Nc1cccc2ccccc12,5.63
5,COC(=O)[C@H](CCSC)NC(=O)NCc1ccccn1,6.44
6,Cc1ccc(S(=O)(=O)Nc2ccccc2C(=O)N2CCN(C)CC2)cc1,3.41
7,COCC(=O)N1CCCN(c2nc3c(C)cccc3cc2C#N)CC1,3.26
8,CCCCCC1CCC(C(=O)NNC(=S)NCC)CC1 (centres unmarked),4.38
9,O=C(Nc1cccc(Cl)c1)N1CCN(c2ncccn2)CC1,6.58
10,CCOc1ccc(C2/C(=C(\O)c3ccc4c(c3)OCCO4)C(=O)C(=O)N2CCCN2CCOCC2)cc1 (centres unmarked),12.7
11,CC(C)(C)NC(=O)C(c1ccco1)N(Cc1ccc(F)cc1)C(=O)c1snc(C(N)=O)c1N (centres unmarked),-6.09
12,O=C(Nc1ccc(S(=O)(=O)Nc2ccccn2)cc1)c1cccc(Cl)c1,17.2
13,Cc1ccc(C(=O)N2CCN(S(=O)(=O)c3ccccc3C#N)CC2)cc1S(=O)(=O)N1CCOCC1,4.15
14,Cn1c(SCC(=O)N2CCCC2)nnc1-c1ccc2c(c1)OCO2,15.3
15,Cc1ccc(S(=O)(=O)N(C)C)cc1NC(=O)COC(=O)c1ccc2c(c1)OCCO2,18.6
16,CCCn1c(=O)c(C(=O)NCc2cccnc2)c(O)c2ccccc21,8.83
17,CCCCS(=O)(=O)N1CCN(C(=N)N[N+](=O)[O-])CC1,9.27
18,Cc1c(NC(=O)c2ccccc2N(C)S(=O)(=O)c2ccccc2)c(=O)n(-c2ccccc2)n1C,-7.68
19,CC(=O)N1CCC(=NNS(=O)(=O)c2ccc(C)c([N+](=O)[O-])c2)CC1,10.6
20,O=C(NCCNC(=O)c1ccccn1)c1ccc(Cl)cc1,10.9
21,Nn1c(Cc2ccccc2F)nnc1SCn1nnc2ccccc2c1=O,12.3
22,CC(=O)Oc1c(C(=O)c2nnc(C)o2)c(=O)n(Cc2ccccc2)c2ccccc12,1.49
